# The campaign covered roughly 320,000 compounds. About 200 (0.062%) were called active. Inconclusive results, whose numbers are uncertain, are shown with a selection of clear calls. The call rests on the fitted dose curve; in most records, active means well fitted activation curve with a large enough effect; inconclusive means small, poorly fitted or top-dose-only effect; inactive means no such curve, though single readings can be large or run the other way. No potency is given beside an inconclusive call; the fits are too rough.
# Assay: qHTS assay for re-activators of p53 using a Luc reporter; further: nearly all actives have a fitted effect of over 45% in size; on activity change, positive = activation: % of control where 0% means no effect
# Details: H1299 p53-A138V BP100-luciferase reporter, luminescence, 24 h; series mostly up to 92.2 µM; activity change, positive = activation: at the top concentration
# How it was run: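 H1299 (p53-null), stable ts p53-A138V + BP100-Luc; 1000 cells/well, Opti-MEM/10% FBS; cpd 4 pt, 1:5; 24 h, 37 deg C, 5% CO2; detection reagent 10 min RT; luminescence.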
# Potency means the concentration at half of the fitted maximal effect; tags describe the fitted curve by direction and shape.
Structure (SMILES),"activity change, positive = activation",Potency
COc1cc(/C=N/n2c(-c3ccccc3)n[nH]c2=S)cc(OC)c1O,inactive: 9.79%,–
COc1ccccc1NC(=O)N(Cc1cc2cc(OC)c(OC)cc2[nH]c1=O)CC1CCCO1 (centres undefined),inactive: -10.5%,–
COc1cccc(NC(=O)CN(C)C(=O)CNC(=O)c2ccc(Oc3ccccc3)cc2)c1,–,"inconclusive [activator, partial curve]"
O=C(NC12CC3CC(CC(C3)C1)C2)c1cccc(OC(F)F)c1,inactive: 15.9%,–
O=C(Nc1ccc2c(c1)OCO2)Nc1ccccn1,inactive: 23%,–
N#Cc1cc2c(N)c(C(=O)Nc3ccccc3)sc2nc1N,inactive: 6.39%,–
CCOc1cc(/C=C(\C#N)c2nc3ccccc3[nH]2)ccc1OC(C)C(=O)O (centres undefined),inactive: 11%,–
COc1ccc(-n2c(NC(=O)c3ccc(Br)o3)c(C#N)c3nc4ccccc4nc32)cc1,–,"inconclusive [activator, single point]"
CC1CCc2c(sc(NC(=O)c3cccs3)c2C(=O)O)C1 (centres undefined),–,"inconclusive [activator, partial curve, poor fit]"
Cn1cc(Cl)c(C(=O)NC2CCCCCC2)n1,–,"inconclusive [activator, full curve, poor fit]"
COc1cccc(/C(O)=C2/C(=O)C(=O)N(CCN(C)C)C2c2ccccn2)c1 (centres undefined),–,"inconclusive [activator, full curve, poor fit]"
Cc1ccc(C)c(N2CCN(S(=O)(=O)c3ccc4[nH]c(=O)c(=O)[nH]c4c3)CC2)c1,–,"inconclusive [activator, single point]"
CCc1ccc(NC(=O)c2cc(-c3ccco3)on2)cc1,–,"inconclusive [activator, partial curve, poor fit]"
CCOC(=O)Nc1nc(C)c(C(=O)c2ccc(Cl)cc2)s1,inactive: 14.4%,–
O=C(CC1CCCCC1)NCc1ccc(Cl)cc1,–,"inconclusive [activator, partial curve, poor fit]"
Cn1c(SCC(=O)Nc2ccc(Cl)cn2)nnc1C1CC1,–,"inconclusive [activator, single point]"
O=C(N/N=C(\c1ccccc1)c1ccccn1)c1ccccc1Cl,–,"inconclusive [activator, partial curve, poor fit]"
Cc1sc(NC(=O)c2ccc(F)cc2)c(CN2CCCCCC2)c1C,–,"inconclusive [activator, partial curve, poor fit]"
CC1CCC(NC(=O)c2ccc(NC(=O)c3ccc(=O)[nH]c3)cc2)CC1 (centres undefined),–,"inconclusive [activator, partial curve, poor fit]"
CCOc1ccc(-c2nc(C#N)c(NC3CC3)o2)cc1,–,"inconclusive [activator, full curve]"
Clc1ccc(Cn2ccc(-c3ccc4c(c3)OCO4)n2)cc1Cl,inactive: -1.23%,–
O=C(CC(c1ccco1)S(=O)(=O)c1ccccc1)c1ccccc1 (centres undefined),–,"inconclusive [activator, single point]"
COc1ccc(-c2nc3ncccn3c2Br)cc1,inactive: 12.2%,–

Structure (SMILES),"activity change, positive = activation",Potency
Fc1cccc(CO/N=C/c2c(-c3ccccc3)nc3ccc(Cl)cn23)c1,–,"inconclusive [activator, single point]"
CCc1nc(OCCN(C)C)c2oc3ccccc3c2n1,–,"inconclusive [activator, full curve]"
COc1ccc(C2c3cc(OC)c(OC)cc3CCN2C(=O)c2ccccc2Br)cc1OC (centres undefined),inactive: 9.83%,–
COC(=O)c1ccc(COc2ccccc2OC)o1,inactive: 3.17%,–
COCC(=O)Nc1c(C(=O)Nc2ccc3c(c2)OCCO3)oc2ccccc12,–,"inconclusive [activator, partial curve, poor fit]"
Cc1nc(NCCc2ccccc2)sc1C(=O)N(C)C,–,"inconclusive [activator, partial curve, poor fit]"
COc1cccc(CNc2nc3ccccc3n2CCN2CCCCC2)c1,inactive: -5.12%,–
CCOc1ccc(-c2ccc(SCC(=O)NC3CCCCC3)nn2)cc1,–,"inconclusive [activator, partial curve, poor fit]"
CCn1c(-c2cccc(Cl)c2)n[nH]c1=S,–,"inconclusive [activator, partial curve, poor fit]"
O=C(CCC1CCCCC1)NCc1cccnc1,–,"inconclusive [activator, single point]"
CCOC(=O)c1sc(N(Cc2ccccc2)C(=O)COC(=O)c2cnccn2)nc1C,inactive: -2.42%,–
O=C(c1cc(-c2cccc(O)c2)on1)N1CCCC1,–,"inconclusive [activator, full curve, poor fit]"
COc1cc(OC)cc(-c2nc(-c3ccccc3)no2)c1,–,"inconclusive [activator, partial curve, poor fit]"
COc1ccc(C)cc1S(=O)(=O)N1CCCC(N2CCOCC2)C1 (centres undefined),inactive: 15.3%,–
O=C(N/N=C/c1cc2c3c(c1O)CCCN3CCC2)c1ccccc1O,–,"inconclusive [activator, partial curve, poor fit]"
Cn1c(N)c(C(=O)Nc2ccc3ccccc3c2)sc1=S,–,"inconclusive [activator, partial curve, poor fit]"
COc1cc(SC)ccc1C(=O)Nc1ccc2c(c1)CCC2,–,"inconclusive [activator, full curve, poor fit]"
CC(C)(C)c1ccc(/C=C/C(=O)Nc2ncccn2)cc1,–,"inconclusive [activator, partial curve, poor fit]"
Cn1ccnc1SCC(=O)c1ccc(Br)cc1,–,"inconclusive [activator, partial curve, poor fit]"
Nc1[nH]c(N=NC(=O)c2ccc(F)cc2)c2ccccc12,–,"inconclusive [activator, partial curve, poor fit]"
COc1ccc(-c2cnnn2-c2ccc(NC(=O)/C=C/c3ccc(OC)c(OC)c3)cc2)cc1,inactive: -11.9%,–
Cc1cc(NC(=O)COC(=O)c2ccccc2S(=O)(=O)N(C)c2ccccc2)no1,inactive: -3.69%,–
O=C(NC1CCCCCC1)c1ccc(CN2CCOCC2)cc1,–,"inconclusive [activator, full curve, poor fit]"

Structure (SMILES),"activity change, positive = activation",Potency
O=C(CSc1nc2ccccc2[nH]1)N1CCCCC1,–,"inconclusive [activator, partial curve, poor fit]"
COCCNc1nc2ccccc2n1CC(=O)c1ccc(OC)c(OC)c1,–,"inconclusive [activator, single point]"
O=C(NC1CC1)c1cc2c(s1)-c1ccccc1OC2,–,"inconclusive [activator, partial curve, poor fit]"
CCN(CC)S(=O)(=O)c1cccc(C(=O)N[C@H](C(=O)Nc2nc3ccc(F)cc3s2)C(C)C)c1,–,"inconclusive [activator, partial curve, poor fit]"
Cc1c2ccccc2nc2c(F)c(NCCO)c(F)c(F)c12,–,"inconclusive [activator, full curve, poor fit]"
CCCCNc1cnn(-c2ccccc2)c(=O)c1Cl,inactive: 6.71%,–
CCN(CC)C(=O)c1csc(Nc2ccc(C)cc2)n1,–,"inconclusive [activator, single point]"
CC(C)Oc1ccc(C2CC(=O)NC2=O)cc1 (centres undefined),–,"inconclusive [activator, single point]"
CC(=O)c1sc(NCc2ccc(C)cc2)nc1C,–,"inconclusive [activator, partial curve, poor fit]"
COc1cc(/C=C/c2ccc3cccc(O)c3n2)cc(Cl)c1OC,–,"inconclusive [activator, full curve, poor fit]"
Cc1ccc(NC(=O)c2cc3ccccc3cc2O)cc1,–,"inconclusive [activator, partial curve, poor fit]"
Oc1c(CNc2ccccc2)cc(COCc2ccccc2)c2cccnc12,–,"inconclusive [activator, partial curve, poor fit]"
CCSc1nnc(-c2sc3nnc(-c4ccccc4)c(-c4ccccc4)c3c2N)o1,inactive: -4.47%,–
COc1ccc(-c2cc3ccccc3cn2)cc1,–,"inconclusive [activator, full curve, poor fit]"
CCN(Cc1ccccc1)S(=O)(=O)c1ccc(C(=O)N(CCCN(C)C)c2nc3cc(C)cc(C)c3s2)cc1,inactive: 7.8%,–
C/C(=C\C(=S)Nc1ccccc1)Nc1ccccc1,inactive: 16.1%,–
CCC(=O)Nc1nnc(-c2ccc(OC)cc2)o1,–,"inconclusive [activator, single point]"
CCOc1ccc(NS(=O)(=O)c2ccc(C(=O)NCC(c3ccco3)N3CCCC3)cc2)cc1 (centres undefined),–,"inconclusive [activator, partial curve, poor fit]"
COc1ccccc1N1CCN(c2ccc(-c3ccccc3)nn2)CC1,–,"inconclusive [activator, partial curve, poor fit]"
Cc1ccc(SCc2cc(=O)n3ccsc3n2)c(C)c1,–,"inconclusive [activator, full curve, poor fit]"
Cc1ccc2nc(CSc3nc(C)ccc3C#N)[nH]c2c1,–,"inconclusive [activator, partial curve, poor fit]"
COc1ccc(Nc2cc(C)c3ccccc3n2)cc1,–,"inconclusive [activator, partial curve, poor fit]"
O=C(CN1C(=O)NC2(CCOc3ccccc32)C1=O)NCc1ccccc1 (centres undefined),inactive: -1.4%,–

# — PubChem BioAssay AID504706 (National Center for Advancing Translational Sciences (NCATS), 2011)
